From PubChem BioAssay AID504845 (National Center for Advancing Translational Sciences (NCATS), 2011)
Hit rate of the full screen: of about 390,000 compounds, about 150 (0.038%) were called active. The inconclusive results got no clear call from the source; some entries with a clear call stand among them for comparison. The call rests on the fitted dose curve; in most records, active means well fitted inhibition curve with a large enough effect; inconclusive means small, poorly fitted or top-dose-only effect; inactive means no such curve, though single readings can be large or run the other way. A potency beside an inconclusive call is a rough fit, not a confirmed value.

What follows are molecules tested against Regulator of G-protein signaling 4 (Homo sapiens) (UniProt P49798) (assay: Inhibitors of Regulator of G Protein Signaling (RGS) 4: qHTS). Details: Transcreener GDP fluorescence polarization, RGS4-accelerated GTP hydrolysis; series mostly up to 114 µM.
Sequence of UniProt P49798 (P49798 whole entry, looked up, the tested form may be a part): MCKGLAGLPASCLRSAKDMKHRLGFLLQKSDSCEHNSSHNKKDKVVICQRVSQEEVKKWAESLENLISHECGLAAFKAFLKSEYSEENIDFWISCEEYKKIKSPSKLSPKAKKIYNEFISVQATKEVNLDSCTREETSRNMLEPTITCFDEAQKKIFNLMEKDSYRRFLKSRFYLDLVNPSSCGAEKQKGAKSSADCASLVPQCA
Excerpt: G-protein-coupled receptors (GPCRs) are well-established targets for drug discovery and development. Members of the "regulator of G-protein signaling" (RGS)-protein superfamily have recently emerged as critical modulators of specific GPCR signaling pathways. […] Combining specific RGS domain inhibitors with existing GPCR agonists should potentiate cellular responses and could also increase the specificity of action of existing therapeutics. Small molecule modulators of RGS domain activity should also have clinical utility in inhibiting or potentiating the actions of endogenous GPCR agonists. In particular, the diversity of RGS proteins with highly localized and dynamically regulated distributions in the human brain makes this family of proteins attractive targets for pharmacotherapy of central nervous system (CNS) disorders such as Parkinson's disease, schizophrenia, and anxiety.
This assay was used to screen the NIH Molecular Libraries Small Molecule Repository (MLSMR) in order to identify a small molecule that inhibits RGS4.
NIH Chemical Genomics Center [NCGC]
NIH Molecular Libraries Probe Centers Network [MLPCN]
Assay Submitter (PI): David Siderovski, University of North Carolina Chapel Hill (School of Medicine)
Two microliters of 500nM (2x working concentration) is dispensed into black medium-binding solid-bottom Kalypsys plates. Then with the Kalypsys pintool 23nl of control and compounds are transferred; the control compound is […] CCG-4986 (working concentration). After a 10 minute incubation at room temperature 2ul of antibody is added with the Kalypsys dispenser; (-)RGS4/Transcreener GDP solution in columns 3 and 4 which consisted of 10nM (2x working concentration) Alexa633, 20uM GTP, and 20 ug/ml GDP antibody and (+)RGS4/Transcreener GDP solution in columns 1,2, and 5 to 48 which consists of 900nM RGS4 (2x working concentration), 10nM Alexa633, 20 ug/ml GDP antibody. The plate is centrifuged at 1000 RPM for 15 seconds to remove any possible bubbles and then incubated for 5 minutes at ambient room temperature. An initial fluorescent polarization read (620 nm/688 nm) is performed on the Envision before the plate is incubated for 90 minutes at 30 deg C at a relative humidity of 80%. The plate is once more centrifuged at 1000 RPM for 15 seconds and another Envision fluorescent polarization (620 nm/688 nm) read is carried out.
Further: nearly all actives have a fitted effect of over 75% in size.
Potency means the concentration at half of the fitted maximal effect; tags describe the fitted curve by direction and shape.

SMILES | Potency
COc1ccc(OC)c(-c2csc(NC(=O)Cn3[nH]c(=O)c4ccccc4c3=O)n2)c1 | inconclusive: 50.1 µM [inhibitor, partial curve, poor fit]
CCCc1ccc(OC(C)C(=O)Nc2sc3c(c2C(=O)OC)CCCCC3)cc1 (stereo not drawn) | inconclusive: 79.4 µM [inhibitor, partial curve, poor fit]
CCN1C(=O)c2cccc3c(S(=O)(=O)NCc4ccco4)ccc1c23 | inconclusive: 100 µM [inhibitor, partial curve, poor fit]
Cc1ccc(NC(=O)COC(=O)C2CC3C=CC2C3)cc1S(=O)(=O)N1CCCCC1 (stereo not drawn) | inconclusive: 44.7 µM [inhibitor, partial curve, poor fit]
Cc1nn(C)c(Oc2cccc(Cl)c2)c1C#N | inconclusive: 44.7 µM [inhibitor, partial curve, poor fit]
O=C1C=CC(=O)c2c(O)c(N3CCN(CCO)CC3)c(Cl)c(O)c21 | inconclusive: 44.7 µM [inhibitor, partial curve, poor fit]
CCc1cc2c(=O)c(-c3nc4ccccc4n3C)c(C)oc2c(CN(CC)CC)c1O | inactive
CNCCCC1c2ccccc2C=Cc2ccccc21 | inactive
O=C(NCc1ccccc1)C(=O)NCC(c1ccc2c(c1)OCO2)N1CCOCC1 (stereo not drawn) | inactive
O=C(O)c1ccc(CSCc2ccccc2Cl)o1 | inconclusive: 44.7 µM [inhibitor, partial curve, poor fit]
COc1cccc(/C=C2/C(=O)NN(c3ccccc3)C2=O)c1 | inconclusive: 31.6 µM [inhibitor, full curve, poor fit]
Cc1occc1C(=O)NNC(=S)NC(=O)COc1ccc(Cl)cc1Cl | inconclusive: 100 µM [inhibitor, partial curve, poor fit]
CN(C)C(=O)c1cc(C(=O)c2ccccc2C(F)(F)F)c[nH]1 | inconclusive: 17.8 µM [inhibitor, full curve, poor fit]
FC(F)(F)c1ccc(C2Nc3cccc4cccc(c34)N2)cc1 | inconclusive: 70.8 µM [inhibitor, single point]
Cc1ccc2c(c1)C(=O)C(=O)N2Cc1ccc(Br)cc1 | inconclusive: 31.6 µM [inhibitor, full curve, poor fit]
COc1ccc(C(CC(=O)O)NC(=O)c2ccccc2)cc1OC (stereo not drawn) | inactive
O=C(CCn1c(=O)[nH]c2ccsc2c1=O)N1CCN(c2cccc(Cl)c2)CC1 | inactive
CCCCc1nn2c(=O)cc(COC(=O)c3ccc(NC(=O)c4ccccc4Cl)cc3)nc2s1 | inactive
CC(C)N(Cc1nccn1C)C(=O)CC1C(=O)NCCN1Cc1ccccc1C(F)(F)F (stereo not drawn) | inconclusive: 100 µM [inhibitor, single point]
COc1ccc(C)cc1NC(=O)Nc1ccc2c(c1)CCC2 | inactive
CCn1ccc(C(=O)Nc2ncc(C)s2)n1 | inconclusive: 89.1 µM [inhibitor, single point]
CCOc1ccc(C(C)=O)cc1N1C(=O)C2C3C=CC(O3)C2C1=O (stereo not drawn) | inconclusive: 44.7 µM [inhibitor, partial curve, poor fit]

SMILES | Potency
O=C1c2ccccc2C(=O)N1CCc1csc(NNc2nc(CCN3C(=O)c4ccccc4C3=O)cs2)n1 | inactive
COc1ccc(CCNCc2c(C(=O)O)c(C)n(Cc3c(F)cccc3Cl)c2C)cc1OC | inactive
COc1ccc(N2CCN(C(c3cccs3)C(C)NS(=O)(=O)c3ccccc3)CC2)cc1 (stereo not drawn) | inactive
O=C(COC(=O)CSc1ccc([N+](=O)[O-])cc1)NCCCc1ccccc1 | inconclusive: 79.4 µM [inhibitor, partial curve, poor fit]
CCCCC1C(=O)CC[C@H]2[C@@H]1CC(=O)[C@@H]2C/C=C\CCCC(=O)O (stereo partly drawn) | inactive
COc1cccc(C2CC(c3cccs3)=NN2C(=O)CCC(=O)O)c1OC (stereo not drawn) | inactive
CC(N=c1ccccn1C(=O)Nc1ccc(Cl)cc1)c1ccco1 (stereo not drawn) | inactive
Cc1cc(C)c(S(=O)(=O)Nc2cc(SCC(=O)O)c(O)c3ccccc23)cc1C | inconclusive: 28.2 µM [inhibitor, full curve, poor fit]
CCOC(=O)c1ccc(NC(=O)CSc2c(C(C)C)cnc3c2c(=O)n(C)c(=O)n3C)cc1 | inconclusive: 89.1 µM [inhibitor, single point]
C/C(=N\Nc1ccc(Cl)cc1)c1ccccn1 | inconclusive: 31.6 µM [inhibitor, full curve, poor fit]
CC(C)(C)c1nc2cc(Cl)c([N+](=O)[O-])cc2o1 | inconclusive: 56.2 µM [inhibitor, partial curve, poor fit]
O=C(Nc1cccc(-c2cnc3ccccc3n2)c1)c1cccc(NC(=O)c2ccco2)c1 | inconclusive: 17.8 µM [inhibitor, full curve, poor fit]
CCOC(=O)c1sc2ncn(CC(=O)Nc3ccc(N(C)C)cc3)c(=O)c2c1C | inactive
C/C(=N\Nc1nnc2c3ccccc3n(C)c2n1)c1ccc(C)o1 | inconclusive: 79.4 µM [inhibitor, partial curve, poor fit]
O=C(c1cc2ccccc2oc1=O)N1CCN(C(=O)C2CCCO2)CC1 (stereo not drawn) | inconclusive: 17.8 µM [inhibitor, partial curve, poor fit]
C#CCOc1ccc(C2C3=C(CC(C)(C)CC3=O)N(CC(=O)O)C3=C2C(=O)CC(C)(C)C3)cc1OC | inactive
CCOC(=O)C1CCN(Cc2cc(Cl)c3ccccc3c2O)CC1 | inconclusive: 50.1 µM [inhibitor, partial curve, poor fit]
COc1cc(/C=C/C(=O)c2ccc(NS(=O)(=O)c3ccc(C)cc3)cc2)ccc1OC(F)F | inactive
NC(=O)C1CCN(C(=S)c2ccc(-c3ccc(Br)cc3)o2)CC1 | inconclusive: 10 µM [inhibitor, full curve, poor fit]
O=C(CSc1nc2c([nH]c3ccccc32)c(=O)n1-c1ccccc1F)NCC1CCCO1 (stereo not drawn) | inactive
CC1(C)CC2CN(C(=O)Cc3ccccc3)C(C)(C2)C1 (stereo not drawn) | inconclusive: 25.1 µM [inhibitor, full curve, poor fit]
